Experimental data taken from PubChem BioAssay AID1508642 (National Center for Advancing Translational Sciences (NCATS), 2021).
The whole screen tested about 43,000 compounds, of which about 200 (0.47%) were called active. The inconclusive results got no clear call from the source; some entries with a clear call stand among them for comparison. Calls come from the whole dose curve; as a rule, active = well fitted cell-killing curve with a large enough effect; inconclusive = small, poorly fitted or top-dose-only effect, or effect the other way; inactive = flat fitted curve, though single readings scatter. Potencies of inconclusive entries are doubtful fits and often do not repeat.

Assay: Cell viability qHTS assay in S16 Pmp22-F2sN cells; note: nearly all actives have a fitted effect of over 65% in size
Conditions: S16 Pmp22-F2sN Schwann cells viability, CellTiter-Glo, 24 h; series mostly up to 57.5 µM
Procedure, shortened: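 Viability was measured by CellTiter-Glo luminescence (15 min, room temperature). This followed 24 h at 37 °C of compound exposure (23 nL pin transfer) in S16 Pmp22-F2sN Schwann cells, 500-1,000 per well.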
Potency is the fitted concentration of half-maximal effect; tags give direction and shape of the fitted curve.

SMILES | Potency
COc1ccc(N2CCN(C(CNC(=O)C(=O)NCCc3ccccc3)c3cccnc3)CC2)cc1 (stereo unspecified) | inconclusive: 39.8 µM [cytotoxic, single point]
COc1cc(OC)cc(-c2nc(-c3cccc(C)c3)no2)c1 | inactive
COc1ccc(C)cc1NC(=O)CSc1nc2ccccc2nc1N1CCOCC1 | inconclusive: 22.4 µM [cytotoxic, partial curve, poor fit]
Cc1ccc(CNCc2ccccc2)s1 | inactive
O=C(Cn1ncc2c([nH]c3ccccc32)c1=O)Nc1cccc(C(F)(F)F)c1 | inactive
Cc1ccccc1CN1c2ccccc2S(=O)(=O)c2ccccc21 | inconclusive: 0.631 µM [cytotoxic, full curve]
Cc1c(C(=O)NCc2ccc(F)cc2)oc2ccc(S(=O)(=O)N3CCCCC3)cc12 | inconclusive: 12.6 µM [cytotoxic, partial curve, poor fit]
Cc1ccc2nc(-c3cccs3)c(Nc3c(C)cccc3C)n2c1 | inconclusive: 39.8 µM [cytotoxic, single point]
CCN(CC)CCNC(=O)Cn1ncc2c3ccccc3n(Cc3ccc(Cl)cc3)c2c1=O | inconclusive: 35.5 µM [cytotoxic, single point]
Cc1cccc(N(C)c2nc3ccc(C(=O)c4ccccc4)cc3n3c(C)nnc23)c1 | inconclusive: 25.1 µM [cytotoxic, single point]
CCN(CC)c1nc2ccccc2nc1C(=O)Nc1ccc(C(C)=O)cc1 | inconclusive: 39.8 µM [cytotoxic, single point]
CCCCCOc1ccc(/C=C/C(=O)Nc2sc(C)c(C)c2C(=O)OCC)cc1OC | inactive
CCc1cccc(NC(=O)c2cc3c(=O)n(Cc4ccccc4)ccc3nc2C)c1 | inconclusive: 6.31 µM [cytotoxic, full curve]
CC(C)c1ccc(NC(=O)C2CCN(C(=O)c3ccc(F)cc3)CC2)cc1 | inconclusive: 39.8 µM [cytotoxic, single point]
COc1ccc(CCNC(=O)CCn2c(=O)c3ccccc3n(Cc3ccccc3F)c2=O)cc1OC | inconclusive: 39.8 µM [cytotoxic, single point]
CCOCCCNC(=O)c1ccc(-n2c(-c3ccccc3)cc3c2CCCC3)cc1 | inconclusive: 39.8 µM [rising, single point]
CCSc1ncc(Cl)c(C(=O)N2CCN(c3ccccc3OC)CC2)n1 | inconclusive: 2.82 µM [cytotoxic, full curve]
CCc1nc2ccc(C(=O)NCCc3ccccc3OC)cc2nc1CC | inconclusive: 39.8 µM [cytotoxic, single point]
CCc1cccc(NC(=O)C2CCCN(c3ncnc4onc(-c5ccc(F)cc5)c34)C2)c1 (stereo unspecified) | inconclusive: 39.8 µM [cytotoxic, single point]
Cc1ccc(CN2CCC(CNC(=O)c3cnn(-c4ccccc4Cl)c3C3CCN(C(=O)OC(C)(C)C)CC3)CC2)cc1 | inconclusive: 28.2 µM [cytotoxic, single point]
Cc1ccc(Cn2c(SCc3ccc(C(=O)NC4CCCCC4)cc3)nc3ccncc32)cc1 | inconclusive: 39.8 µM [cytotoxic, single point]

SMILES | Potency
COc1ccc(S(=O)(=O)NCC(c2cccs2)S(=O)(=O)c2ccccc2)cc1OC (stereo unspecified) | inconclusive: 28.2 µM [cytotoxic, single point]
CCSc1nn(CC(=O)Nc2cccc(CC)c2)c(N)c1S(=O)(=O)c1ccccc1 | inconclusive: 39.8 µM [cytotoxic, single point]
COCCCNC(=O)C1CCN(Cc2cc3ccccc3n2Cc2ccccc2C)CC1 | inconclusive: 28.2 µM [cytotoxic, single point]
Cc1oc(-c2ccc(Cl)cc2)nc1CN1CCCC(C(=O)NCCc2ccc(Cl)cc2)C1 (stereo unspecified) | inconclusive: 35.5 µM [cytotoxic, single point]
CC(C)(C)C(=O)Nc1ccc(-c2nc3ccc(NC(=O)C(C)(C)C)cc3[nH]2)cc1 | inconclusive: 31.6 µM [cytotoxic, single point]
CCS(=O)(=O)c1ncc(N(Cc2ccccc2)Cc2ccco2)c(C(=O)Nc2cccc(Cl)c2C)n1 | inactive
Cc1ccc(C)c(Cn2c3ccccc3c3cnn(CC(=O)NC(C)CCc4ccccc4)c(=O)c32)c1 (stereo unspecified) | inconclusive: 25.1 µM [cytotoxic, single point]
Fc1ccc(C(c2nnc(-c3ccccc3)o2)N2CCN(c3cccc(Cl)c3)CC2)cc1 (stereo unspecified) | inconclusive: 14.1 µM [rising, partial curve]
Cc1ccc(Nc2c(-c3c[nH]c4ccccc34)nc3ccccn23)cc1 | inactive
CC(C)Oc1ccccc1-c1nc(SCC(=O)c2ccc(F)cc2)n[nH]1 | inconclusive: 31.6 µM [cytotoxic, single point]
Cc1cccc(N2CCN(C(=O)C3CCN(C(=O)c4cc5sccc5n4C)CC3)CC2C)c1 (stereo unspecified) | inconclusive: 31.6 µM [cytotoxic, single point]
O=C(Nc1cc(Cl)cc(Cl)c1)c1cc(S(=O)(=O)NC2CCCC2)ccc1F | inconclusive: 28.2 µM [cytotoxic, single point]
CCOCc1cc(CN2CCN(c3cccc(C(F)(F)F)c3)CC2)c(O)c2ncccc12 | inconclusive: 2 µM [cytotoxic, full curve, poor fit]
CCc1ccc(NC(=O)C(=O)NCC(c2ccc3c(c2)OCO3)N2CCN(C)CC2)cc1 (stereo unspecified) | inconclusive: 25.1 µM [cytotoxic, single point]
COc1ccc(-n2nc3c(N4CCC(C(=O)N5CCC(C)CC5)CC4)nnc(C)c3c2C)cc1 | inconclusive: 39.8 µM [cytotoxic, single point]
Cc1c(Cl)cccc1NC(=O)C(=O)NCCc1csc2nc(-c3ccccc3F)nn12 | inactive
CCN1CCN(CCCNC(=O)Cn2c(-c3cccs3)cc3cc(Cl)ccc32)CC1 | inconclusive: 28.2 µM [cytotoxic, single point]
CCc1ccc(NC(=O)c2cc(S(=O)(=O)NC3CCCCCC3)ccc2F)cc1 | inconclusive: 39.8 µM [cytotoxic, single point]
Cc1nn2c(-c3ccccc3)cc(-c3ccccc3)nc2c1-c1ccc(Cl)cc1 | inactive
CC1CCC(NC(=O)c2ccc(CSc3nc4ccncc4n3Cc3ccc(F)cc3)cc2)CC1 (stereo unspecified) | inconclusive: 39.8 µM [cytotoxic, single point]
COc1ccc(NC(=O)[C@H](Cc2ccccc2)N2Cc3ccccc3C2=O)cc1OC | inconclusive: 39.8 µM [cytotoxic, partial curve, poor fit]

SMILES | Potency
CC(=O)c1cccc(NS(=O)(=O)c2c(C(=O)N3CCCCCC3)c(C)n(C)c2C)c1 | inactive
Cc1ccc2c(CC(=O)N(Cc3ccc(N(C)C)cc3)Cc3ccco3)coc2c1C | inactive
COc1cccc(-c2cc(C(F)(F)F)n3ncc(C(=O)OC(C)C)c3n2)c1 | inconclusive: 6.31 µM [rising, partial curve]
O=S(=O)(NCCc1nnc2ccc(SCc3ccccc3Cl)nn12)c1ccccc1 | inconclusive: 35.5 µM [cytotoxic, partial curve, poor fit]
COc1cc2nc(Nc3cccc(F)c3)nc(N)c2cc1OC | inconclusive: 39.8 µM [cytotoxic, single point]
Cc1cccc2nc(-c3ccccn3)c(Nc3ccccc3)n12 | inactive
CC(C)Cn1cc(NC(=O)N2CCN(c3cccc(C(F)(F)F)c3)CC2)c2ccccc2c1=O | inconclusive: 39.8 µM [cytotoxic, single point]
CCOCCCN(Cc1ccco1)C(=O)c1cc2c(s1)-c1c(C)cccc1OC2 | inconclusive: 39.8 µM [cytotoxic, single point]
COc1ccc(OC)c(NC(=O)c2nc(S(=O)(=O)Cc3ccc(F)cc3)ncc2Cl)c1 | active: 4.47 µM
CCn1c(CN2CCN(C)CC2)nc2cc(NC(=O)c3ccc([N+](=O)[O-])cc3)ccc21 | inconclusive: 31.6 µM [cytotoxic, partial curve, poor fit]
COC(=O)c1ccccc1NC(=O)c1ccc(CN2CC(=O)N3CCCCC3C2=O)cc1 (stereo unspecified) | inconclusive: 0.112 µM [cytotoxic, full curve, poor fit]
COc1ccccc1N1CCN(CC(O)COc2ccc(Cl)c(C)c2)CC1 (stereo unspecified) | inconclusive: 22.4 µM [cytotoxic, single point]
CC1=C(C(=O)OC2CCCC2)C(c2c(F)cccc2Cl)CC(=O)N1 (stereo unspecified) | inactive
COc1ccc(-n2c(-c3cccc(F)c3)nc3c(cnn3-c3ccc(C)cc3)c2=O)cc1 | inconclusive: 0.355 µM [rising, partial curve, poor fit]
COC(=O)c1ccccc1NC(=O)Cn1c(=O)n(CCC(=O)NCc2ccc3c(c2)OCO3)c(=O)c2ccccc21 | inconclusive: 12.6 µM [rising, partial curve, poor fit]
CCN1CCc2c(sc(NC(=O)c3ccc(S(=O)(=O)N4CCCC(C)C4)cc3)c2C(=O)OC)C1 (stereo unspecified) | inconclusive: 39.8 µM [cytotoxic, single point]
CCOc1ccc(NS(=O)(=O)c2ccc3c(c2)NC(=O)CCS3)cc1 | inconclusive: 14.1 µM [cytotoxic, partial curve]
COc1cc(CNC(=O)c2cc3n(n2)CCCN(Cc2cccc(F)c2)C3=O)cc(OC)c1OC | inactive
CC(=O)c1cccc(NC(=O)CSc2ncc3c(n2)-c2cc(Cl)ccc2N(Cc2ccccc2)S3(=O)=O)c1 | inconclusive: 12.6 µM [rising, partial curve, poor fit]
